Measurements from the supplement of paper PMC8728848.
This is one part of the list.

Tests used:
Experiment in all cases: glycan array binding signal (z-score within array); higher = stronger binding
Details in all cases: glycan notation: IUPAC condensed, linker removed; mutation: R186I
[1] = molecular target: Neu5Ac(a2-6)Gal(b1-4)GlcNAc(b1-2)Man(a1-3)Man(b1-4)GlcNAc(b1-4)GlcNAc
In short: (§1)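 Glycan array data came from 3228 arrays in the Consortium for Functional Glycomics database, and only arrays with an available protein sequence were kept. Glycan names were put into IUPAC-condensed notation, and columns mapping to the same glycan were averaged. The binding signal is a within-array Z-score, averaged across arrays of one protein sequence run at different concentrations or buffers and across linkers. A negative Z-score can be read as non-binding.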

[2] = molecular target: Neu5Ac(a2-6)Gal(b1-4)GlcNAc(b1-2)Man(a1-3)[Gal(b1-4)GlcNAc(b1-2)Man(a1-6)]Man(b1-4)GlcNAc(b1-4)GlcNAc
In short: as §1

[3] = molecular target: Neu5Ac(a2-6)Gal(b1-4)GlcNAc(b1-2)Man(a1-3)[GlcNAc(b1-2)Man(a1-6)]Man(b1-4)GlcNAc(b1-4)GlcNAc
In short: as §1

[4] = molecular target: Neu5Ac(a2-6)Gal(b1-4)GlcNAc(b1-2)Man(a1-3)[GlcNAc(b1-2)Man(b1-4)GlcNAc(b1-2)Man(a1-6)]Man(b1-4)GlcNAc(b1-4)GlcNAc
In short: as §1

[5] = molecular target: Neu5Ac(a2-6)Gal(b1-4)GlcNAc(b1-2)Man(a1-3)[Man(a1-6)]Man(b1-4)GlcNAc(b1-4)GlcNAc
In short: as §1

[6] = molecular target: Neu5Ac(a2-6)Gal(b1-4)GlcNAc(b1-2)Man(a1-3)[Neu5Ac(a2-6)Gal(b1-4)GlcNAc(b1-2)Man(a1-6)]Man(b1-4)GlcNAc(b1-4)GlcNAc
In short: as §1

[7] = molecular target: Neu5Ac(a2-6)Gal(b1-4)GlcNAc(b1-2)Man(a1-6)Man(b1-4)GlcNAc(b1-4)GlcNAc
In short: as §1

[8] = molecular target: Neu5Ac(a2-6)Gal(b1-4)GlcNAc(b1-2)Man(a1-6)[Gal(b1-4)GlcNAc(b1-2)Man(a1-3)]Man(b1-4)GlcNAc(b1-4)GlcNAc
In short: as §1

[9] = molecular target: Neu5Ac(a2-6)Gal(b1-4)GlcNAc(b1-2)Man(a1-6)[GlcNAc(b1-2)Man(a1-3)]Man(b1-4)GlcNAc(b1-4)GlcNAc
In short: as §1

[10] = molecular target: Neu5Ac(a2-6)Gal(b1-4)GlcNAc(b1-2)Man(a1-6)[Man(a1-3)]Man(b1-4)GlcNAc(b1-4)GlcNAc
In short: as §1

[11] = molecular target: Neu5Ac(a2-6)Gal(b1-4)GlcNAc(b1-3)Gal(b1-3)GlcNAc
In short: as §1

[12] = molecular target: Neu5Ac(a2-6)Gal(b1-4)GlcNAc(b1-3)Gal(b1-4)GlcNAc
In short: as §1

[13] = molecular target: Neu5Ac(a2-6)Gal(b1-4)GlcNAc(b1-3)Gal(b1-4)GlcNAc(b1-3)Gal(b1-4)GlcNAc
In short: as §1

[14] = molecular target: Neu5Ac(a2-6)Gal(b1-4)GlcNAc(b1-3)Gal(b1-4)[Fuc(a1-3)]GlcNAc(b1-3)Gal(b1-4)[Fuc(a1-3)]GlcNAc
In short: as §1

[15] = molecular target: Neu5Ac(a2-6)Gal(b1-4)GlcNAc(b1-3)GalNAc
In short: as §1

[16] = molecular target: Neu5Ac(a2-6)Gal(b1-4)GlcNAc6S
In short: as §1

Neu5Ac(a2-6)GalNAc = molecular target: Neu5Ac(a2-6)GalNAc
In short: as §1

[17] = molecular target: Neu5Ac(a2-6)GalNAc(b1-4)GlcNAc
In short: as §1

[18] = molecular target: Neu5Ac(a2-6)GlcNAc(b1-4)GlcNAc
In short: as §1

[19] = molecular target: Neu5Ac(a2-6)GlcNAc(b1-4)GlcNAc(b1-4)GlcNAc
In short: as §1

Neu5Ac(a2-8)Neu5Ac = molecular target: Neu5Ac(a2-8)Neu5Ac
In short: as §1

[20] = molecular target: Neu5Ac(a2-8)Neu5Ac(a2-3)Gal(b1-4)Glc
In short: as §1

[21] = molecular target: Neu5Ac(a2-8)Neu5Ac(a2-3)[GalNAc(b1-4)]Gal(b1-4)Glc
In short: as §1

[22] = molecular target: Neu5Ac(a2-8)Neu5Ac(a2-8)Neu5Ac
In short: as §1

[23] = molecular target: Neu5Ac(a2-8)Neu5Ac(a2-8)Neu5Ac(a2-3)Gal(b1-4)Glc
In short: as §1

[24] = molecular target: Neu5Ac(a2-8)Neu5Ac(a2-8)Neu5Ac(a2-3)[GalNAc(b1-4)]Gal(b1-4)Glc
In short: as §1

[25] = molecular target: Neu5Ac(a2-8)Neu5Ac(a2-8)Neu5Ac(a2-8)Neu5Ac(a2-3)[GalNAc(b1-4)]Gal(b1-4)Glc
In short: as §1

[26] = molecular target: Neu5Ac(b2-6)Gal(b1-4)GlcNAc
In short: as §1

Neu5Ac(b2-6)GalNAc = molecular target: Neu5Ac(b2-6)GalNAc
In short: as §1

[27] = molecular target: Neu5Ac9Ac(a2-3)Gal(b1-3)GlcNAc
In short: as §1

[28] = molecular target: Neu5Ac9Ac(a2-3)Gal(b1-4)GlcNAc
In short: as §1

[29] = molecular target: Neu5Ac9Ac(a2-6)Gal(b1-4)GlcNAc
In short: as §1

[30] = molecular target: Neu5Gc(a2-3)Gal(b1-3)GlcNAc
In short: as §1

[31] = molecular target: Neu5Gc(a2-3)Gal(b1-3)[Fuc(a1-4)]GlcNAc
In short: as §1

Neu5Gc(a2-3)Gal(b1-4)Glc = molecular target: Neu5Gc(a2-3)Gal(b1-4)Glc
In short: as §1

[32] = molecular target: Neu5Gc(a2-3)Gal(b1-4)GlcNAc
In short: as §1

[33] = molecular target: Neu5Gc(a2-3)Gal(b1-4)[Fuc(a1-3)]GlcNAc
In short: as §1

[34] = molecular target: Neu5Gc(a2-6)Gal(b1-4)GlcNAc
In short: as §1

Neu5Gc(a2-6)GalNAc = molecular target: Neu5Gc(a2-6)GalNAc
In short: as §1

[35] = molecular target: Neu5Gc(b2-6)Gal(b1-4)GlcNAc
In short: as §1

B1: Gal 3 (Homo sapiens), P17931 (protein)
chain: MADNFSLHDALSGSGNPNPQGWPGAWGNQPAGAGGYPGASYPGAYPGQAPPGAYPGQAPPGAYHGAPGAYPGAPAPGVYPGPPSGPGAYPSSGQPSAPGAYPATGPYGAPAGPLIVPYNLPLPGGVVPRMLITILGTVKPNANILDFQRGNDVAFHFNPRFNENNRRVIVCNTKLDNNWGREEIQSVFPFESGKPFKIQVLVEPDHFKVAVNDAHLLQYNHRVKKLNEISKLGISGDIDLTSASYTMI
For B1, the “glycan array binding signal (z-score)” value [1] was -0.155, the “glycan array binding signal (z-score)” value [2] was -0.156 and the “glycan array binding signal (z-score)” value [3] was -0.151. For the same binder, the “glycan array binding signal (z-score)” value [4] was 0.736, the “glycan array binding signal (z-score)” value [5] was -0.129 and the “glycan array binding signal (z-score)” value [6] was 0.034. For the same binder, the “glycan array binding signal (z-score)” value [7] was -0.139, the “glycan array binding signal (z-score)” value [8] was -0.176 and the “glycan array binding signal (z-score)” value [9] was -0.173. For the same binder, the “glycan array binding signal (z-score)” value [10] was -0.186, the “glycan array binding signal (z-score)” value [11] was -0.146 and the “glycan array binding signal (z-score)” value [12] was 0.078. For the same binder, the “glycan array binding signal (z-score)” value [13] was -0.107, the “glycan array binding signal (z-score)” value [14] was -0.183 and the “glycan array binding signal (z-score)” value [15] was 0.046. The “glycan array binding signal (z-score)” value [16] was -0.186, the “glycan array binding signal (z-score)” value (Neu5Ac(a2-6)GalNAc) was -0.095 and the “glycan array binding signal (z-score)” value [17] was -0.157. For the same binder, the “glycan array binding signal (z-score)” value [18] was -0.196, the “glycan array binding signal (z-score)” value [19] was -0.157 and the “glycan array binding signal (z-score)” value (Neu5Ac(a2-8)Neu5Ac) was -0.178. For the same binder, the “glycan array binding signal (z-score)” value [20] was -0.192, the “glycan array binding signal (z-score)” value [21] was 0.11 and the “glycan array binding signal (z-score)” value [22] was -0.048. For the same binder, the “glycan array binding signal (z-score)” value [23] was -0.046, the “glycan array binding signal (z-score)” value [24] was 0.114 and the “glycan array binding signal (z-score)” value [25] was -0.173. The “glycan array binding signal (z-score)” value [26] was -0.199, the “glycan array binding signal (z-score)” value (Neu5Ac(b2-6)GalNAc) was -0.167 and the “glycan array binding signal (z-score)” value [27] was -0.19. The “glycan array binding signal (z-score)” value [28] was -0.093, the “glycan array binding signal (z-score)” value [29] was -0.185 and the “glycan array binding signal (z-score)” value [30] was 0.124. For the same binder, the “glycan array binding signal (z-score)” value [31] was -0.11, the “glycan array binding signal (z-score)” value (Neu5Gc(a2-3)Gal(b1-4)Glc) was -0.178 and the “glycan array binding signal (z-score)” value [32] was -0.157. For the same binder, the “glycan array binding signal (z-score)” value [33] was -0.165, the “glycan array binding signal (z-score)” value [34] was -0.181 and the “glycan array binding signal (z-score)” value (Neu5Gc(a2-6)GalNAc) was -0.142. The “glycan array binding signal (z-score)” value [35] was -0.169.
